First the molecules themselves.
B1: LINE1-mini (parent)
chain: GGCAGAGCUCAACACAGCGUGGCAAAGUGGCUGUGGCUAGACUGCC

Read counts are not given, so values of variants with three or more changes are uncertain.

The variants in the data set derive from B1. Put plainly: self-cleavage, relative activity (ratio to wild type); higher = more cleavage; in vitro, sequencing; the parent is a self-cleaving ribozyme.
In the case of A14G G17A U38A, the self-cleavage was 0.07.

On to A14C U28C G33U, for which the self-cleavage stood at 0.02.

In the case of A14G A25C U28G, the self-cleavage is 0.19.

For A14C G29U G35U, the self-cleavage turned out to be 0.02.

For A14G C15G C18U U34G A41G C42G, the self-cleavage stood at 0.03.

As for A14C G21C C37G, the self-cleavage worked out at 0.

For C13U U20G G30A U34A G36A C45U, the self-cleavage worked out at 0.05.

For C13U G27A C31U G33U, the self-cleavage worked out at 0.09.

For the variant A14G A26C G35C, the self-cleavage was found to be 0.13.

Consider A14C G17A G19A G33U G35C, for which the self-cleavage was 0.04.

A14U A16C A26C: the self-cleavage was determined as 0.01.

For the variant A14U A16G G27U C42U U43G, the self-cleavage stood at 0.07.

C13U G35U A39U C46G: the self-cleavage turned out to be 0.02.

On to A14U A16G C37U, for which the self-cleavage came out at 0.12.

On to A14C C18U G29U, for which the self-cleavage came out at 0.06.

Consider A14C A16U G30A G33U, for which the self-cleavage is 0.11.

For the variant A14G U38G C46A, the self-cleavage came to 0.02.

Take A14C G17C U43A: the self-cleavage turned out to be 0.1.

For A14G G21U G33A, the self-cleavage stood at 0.02.

C13U U32A G35C G44A: the self-cleavage is 0.06.

With C13U G33A U43C, the self-cleavage amounted to 0.26.

Regarding A14C C15U C23A C45A C46U, the self-cleavage came to 0.13.

In the case of C13U G36U A39C C46A, the self-cleavage came out at 0.01.

As for A14C C37G U38G C42G, the self-cleavage was determined as 0.02.

Take A14U A16G G19U U38C: the self-cleavage worked out at 0.22.

C13U G27A G40C: the self-cleavage turned out to be 0.19.

Regarding A14G G17A A25U A26G, the self-cleavage was determined as 0.03.

Take C13U G29U G40U: the self-cleavage was 0.1.

A14C A41C G44A: the self-cleavage worked out at 0.03.

As to A14U A16U U34G A39U, the self-cleavage was 0.04.

For the variant A14C C15A G29U C46A, the self-cleavage came to 0.3.

For the variant A14C G21A G35U, the self-cleavage amounted to 0.02.

In the case of A14C U28A G35U, the self-cleavage stood at 0.03.

In the case of C13U G33C A41C G44U, the self-cleavage is 0.05.

For A14G G33C C46A, the self-cleavage turned out to be 0.03.

With A14C U20G A26U U28C G33A, the self-cleavage is 0.01.

Turning to A14C G40U C46A, the self-cleavage was 0.07.

As to A14C C31A A39U, the self-cleavage was determined as 0.

Turning to C13U G29A G35C, the self-cleavage turned out to be 0.13.

In the case of A14C G22A C31A U43A, the self-cleavage was 0.02.

Turning to A14C C23U G35C C37U A41C, the self-cleavage turned out to be 0.01.

For the variant A14G C15A G17U G19C G22A, the self-cleavage came to 0.12.

Regarding A14G G22U A26C G36U, the self-cleavage amounted to 0.18.

Take A14C C18G A26U G40C: the self-cleavage turned out to be 0.04.

For A14C G36U A39U A41U, the self-cleavage was 0.06.

A14G G27A G33A G35C G40C: the self-cleavage was 0.02.

For the variant A14G G33U U38A, the self-cleavage came out at 0.05.

As for A14C C15A A16C, the self-cleavage was found to be 0.03.

On to C13U U28C A41U, for which the self-cleavage is 0.14.

Take A14G G29U G36C G44C: the self-cleavage stood at 0.05.

On to C13U U20G U38C, for which the self-cleavage turned out to be 0.

Regarding A14C C15A C23G, the self-cleavage was determined as 0.04.

As for A14C G19U G22C, the self-cleavage was found to be 0.06.

A14C G44A C45U: the self-cleavage worked out at 0.06.

A14C U20A G22C G27A G29U C42U: the self-cleavage amounted to 0.02.

In the case of A14G C18G C23G A24C C31G, the self-cleavage is 0.02.

Consider A14C A16U G22U U32C C37G U43A, for which the self-cleavage was 0.02.

As for A14C G17U C45U, the self-cleavage is 0.01.

Take A14C G19U C31U C45A: the self-cleavage is 0.

Take A14C G17C C31U G40C: the self-cleavage was determined as 0.01.

Turning to A14C A26C G40A, the self-cleavage turned out to be 0.01.

Take A14C U20A C42A: the self-cleavage was 0.05.

For A14C G35U C45G, the self-cleavage was determined as 0.05.

With A14G A16G G17A G36C, the self-cleavage came to 0.03.

On to A14C G22U A26C C45U, for which the self-cleavage amounted to 0.06.

Turning to A14G U28A U43G, the self-cleavage was determined as 0.

With A14G U28A U43A, the self-cleavage was determined as 0.03.

Take A14C G22A C45A: the self-cleavage came out at 0.04.

As to A14C U20A C46A, the self-cleavage stood at 0.13.

Take C13U U20A G29C C42U: the self-cleavage came to 0.02.

Consider A14C G44C C46U, for which the self-cleavage is 0.13.

As for A14C A25C G33A U38C C45U, the self-cleavage was 0.03.

A14G G30A G40U: the self-cleavage was found to be 0.04.

A14G G22U A25C U34G: the self-cleavage stood at 0.19.

With A14C A16U G19U G33C, the self-cleavage stood at 0.99.

A14G C18G C45U: the self-cleavage stood at 0.16.

For the variant A14G C18U C42A, the self-cleavage was 0.05.

With A14G G19A U28G C42G, the self-cleavage was 0.02.

As to A14G C18G U28G, the self-cleavage was found to be 0.05.

Take C13U G30U C31U A41U G44C: the self-cleavage worked out at 0.01.

Take A14G U34G G36U: the self-cleavage was 0.07.

With A14G G29C C31G, the self-cleavage is 0.01.

As to A14C G29C G35U C45G, the self-cleavage turned out to be 0.01.

As to A14G U20C G36C, the self-cleavage stood at 0.19.

On to A14C G27A G33C C42A C45G, for which the self-cleavage is 0.02.

On to A14U A16C G33U G36A, for which the self-cleavage came out at 0.03.

Consider C13U G33A C46A, for which the self-cleavage worked out at 0.03.

With A14G A41U C46U, the self-cleavage amounted to 0.32.

Take C13U G36A C46U: the self-cleavage came out at 0.18.

As for A14C C23A A41U, the self-cleavage was determined as 0.12.

In the case of A14U A16C G22U G35U, the self-cleavage was determined as 0.07.

As to C13U U20A G22U C23A C31G G36C, the self-cleavage is 0.01.

Turning to C13U U20G A26C G30A, the self-cleavage came out at 0.06.

A14G C31A A39U: the self-cleavage stood at 0.04.

As to A14G A16C C23A G40A, the self-cleavage turned out to be 0.

A14C A24C G40U: the self-cleavage came to 0.1.

For A14U A16U G27A, the self-cleavage was 0.05.

In the case of A14G G35A G40U, the self-cleavage was determined as 0.09.

For the variant A14C A16G G44A C45U, the self-cleavage is 0.08.

Consider A14G G19A G21A, for which the self-cleavage was 0.75.

For the variant A14G C23U C31A C45G, the self-cleavage is 0.05.

In the case of C13U G29C C45A, the self-cleavage amounted to 0.23.

As to A14G G29C G36A C37A C42A C45U, the self-cleavage worked out at 0.1.

Turning to A14C C31G G33A, the self-cleavage worked out at 0.04.

Turning to A14U A24C G27A G44C, the self-cleavage was 0.12.

Turning to A14C G30C U34C C37G C46G, the self-cleavage came to 0.02.

Turning to C13U G27U U38G, the self-cleavage is 0.01.

As to A14G C23A A41C, the self-cleavage came to 0.01.

As for A14C U38G A41U C42A, the self-cleavage is 0.02.

For the variant A14G C18A U28G C31A U38A C45G, the self-cleavage came to 0.

As for A14G G22U C31G, the self-cleavage was 0.18.

For C13U G27C C42G, the self-cleavage worked out at 0.38.

For the variant A14G A16G G29U G40U, the self-cleavage worked out at 0.04.

Consider C13U U28C A39C, for which the self-cleavage came to 0.06.

On to A14G C15U A26C G29U U32C, for which the self-cleavage was found to be 0.2.

Consider A14C G19U A24U C45U, for which the self-cleavage stood at 0.03.

For A14C U20C C37U A41U, the self-cleavage was determined as 0.

Consider A14C C23A U32C U43G, for which the self-cleavage was found to be 0.07.

Regarding A14G U20A G44C, the self-cleavage is 0.36.

Regarding A14C G29C U38G, the self-cleavage turned out to be 0.

As for A14G C23A U34G, the self-cleavage is 0.09.

In the case of A14C U34G C42U, the self-cleavage was 0.

In the case of A14C C18G A24U, the self-cleavage was 0.08.

With A14C G21U C31A A39G, the self-cleavage came to 0.01.

Regarding C13U G27A C37A, the self-cleavage turned out to be 0.07.

Consider A14G C18U C45U, for which the self-cleavage worked out at 0.

For A14G C18U C45A, the self-cleavage came out at 0.04.

Turning to A14G C15U U43A C45U, the self-cleavage is 0.04.

For the variant A14G G29U C37A, the self-cleavage was 0.01.

Turning to A14C G21A C23U, the self-cleavage worked out at 0.07.

As for A14C G17U A25C, the self-cleavage worked out at 0.04.

On to A14C G17U A25U, for which the self-cleavage turned out to be 0.06.

On to A14C U20G G27C G29U, for which the self-cleavage is 0.03.

Take A14C G19A A24U U28G: the self-cleavage came out at 0.01.

A14C C23U A24U G40A: the self-cleavage stood at 0.04.

As for A14G C23A G44A, the self-cleavage is 0.07.

For C13U G29C A39U, the self-cleavage stood at 0.06.

For the variant A14C U20C G21C C37U C45A C46U, the self-cleavage is 0.

Turning to C13U U20A A39U, the self-cleavage turned out to be 0.15.

For the variant A14G C15G G33U, the self-cleavage worked out at 0.11.

With A14C C23U C42U, the self-cleavage was 0.17.

C13U U28C C42A C45A: the self-cleavage turned out to be 0.02.

In the case of A14C G19C A24C G29A G36A C37G, the self-cleavage was found to be 0.05.

For A14C G27U G30C C31G, the self-cleavage turned out to be 0.02.

In the case of A14G G21U U28A U38A A41G, the self-cleavage amounted to 0.04.

With A14G U20C G21C G36A, the self-cleavage was 0.05.

Regarding A14C C18A G19U G22C G30A C31G G36U, the self-cleavage is 0.07.

On to A14G U20C A24U U43C, for which the self-cleavage is 0.03.

Consider A14C U20C G22C U32C, for which the self-cleavage is 0.09.

For the variant A14G C23A G30A, the self-cleavage was found to be 0.56.

For A14G G21C G22C G30U C31U, the self-cleavage stood at 0.45.

For A14U A16G G22A G36U U43C, the self-cleavage was found to be 0.02.

Take C13U G33U G36U G44C: the self-cleavage stood at 0.11.

Consider A14G G30C U34A, for which the self-cleavage was 0.08.

A14G A26U U32C C37U: the self-cleavage was 0.03.

Consider A14C A24U G27U G44U, for which the self-cleavage turned out to be 0.2.

As for A14G G17C A26G G44A, the self-cleavage stood at 0.03.

Regarding A14G A39C G40A U43A, the self-cleavage came out at 0.

For the variant A14C A16C G19U G44C, the self-cleavage was 0.05.

Turning to A14G G33C G44C, the self-cleavage is 0.

As for A14G C15A U34A C37A, the self-cleavage was 0.01.

For C13U U34G C46A, the self-cleavage came out at 0.

Turning to A14G A16C G21U A25G G33U, the self-cleavage came out at 0.01.

Regarding A14C C18A U20C U34A, the self-cleavage is 0.05.

As for A14G U28A C31U, the self-cleavage worked out at 0.06.

Turning to A14C G19C G22C C46G, the self-cleavage was determined as 0.02.

Consider A14G G33U G44U, for which the self-cleavage is 0.09.

For the origin of these results see the RNAGym collection of RNA variant scans (doi:10.7554/elife.90254).
